B1: CPEB3 Ribozyme (parent)
chain: UAACAGGGGGCCACAGCAGAAGCGUUCACGUCGCAGCCCCUGUCAGAUUCUGGUGAAUCUGCGAAUUCUGCUGUAUAUCUC

The source gives no read counts; variants with many changes may rest on few reads.

In this data set the parent is B1. Put plainly: self-cleavage, relative activity (ratio to wild type); higher = more cleavage; in vitro, sequencing. In short, it runs like this:
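After error-prone PCR and barcoding, CPEB3 ribozyme mutant libraries were transcribed with T7 RNA polymerase at 37°C for 5 hours, then given 15 min with DNase I before an EDTA stop, and they cleaved during both steps. Reverse transcription with template switching preceded Illumina sequencing. Relative activity divides a variant's cleaved/total read fraction by the unmutated ribozyme's. At least 5 reads were required per variant, and three batches were averaged.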
As to U1A A56G U67C, the self-cleavage turned out to be 0.43.
As to U1A A5U U72C, the self-cleavage was determined as 1.21.
With U1A A13G A21U U25A G46A A64G the figure was 0.07; with U1A A3C U26C U54C, 0.87; with U1A U26C A47C, 0.15.
The same measure for U1A U60C A75U A77G: 0.57; for U1A A15G U67C U80A: 0.31.
As to U1C A3G A18G A45G U49C C62A, the self-cleavage turned out to be 0.02.
In the case of U1C A3U A28G U49A, the self-cleavage came out at 0.41.
The same measure for U1A A3G A28U U51A A57G A75G: 0.38.
Regarding U1C A3G A20G U26C, the self-cleavage amounted to 0.6.
The same measure for U1C A3U A18G A20G U58C: 0.52.
In the case of U1A C39U U48C U60C, the self-cleavage was 0.2.
With U1A A18G U31C U60A U67C the figure was 0.21; with U1A A5G U48C, 0.13.
With U1A A20U G42A the figure was 0.32; with U1A G30A A45C, 0.08; with U1A U51C G55A, 0.59.
For the variant U1C A2G C50U U76C U80C, the self-cleavage is 0.59.
As to U1C A5G A13U U41A C44A U60C, the self-cleavage stood at 0.36.
Consider U1A G9U U72C, for which the self-cleavage was 0.05.
The same measure for U1C A3G G6A U49A: 0.14; for U1A A15G A47G U51A: 0.95; for U1A A45U U76C: 0.65.
As for U1A C29A A57G, the self-cleavage was determined as 0.37.
With U1C A3U U25C the figure was 0.1; with U1C A5G A13U A35G C40A U60A, 0.33.
Regarding U1C A2G A20U U41A U43C U72A A75U, the self-cleavage was found to be 0.05.
With U1A C40G U48C U67C U80C the figure was 0.18; with U1A U26A U41C, 0.58; with U1C A2U C11U G24C U25C U67C, 0.05.
As for U1A A3C G9A A18G A28G A35U U41C, the self-cleavage amounted to 0.04.
With U1A U41C A56C the figure was 0.27.
With U1A U31C U41C U51C A75U C81U the figure was 0.83.
On to U1C A3G U48C U49C C62A U72C, for which the self-cleavage turned out to be 0.14.
The same measure for U1A A3C A18G: 0.83; for U1A G6A U31C C34U A64U U78C: 0.04.
On to U1A A2G A20G U60C, for which the self-cleavage turned out to be 0.11.
With U1A A15U G19A U41G U80C the figure was 0.42.
With U1A A20G U25C A35U the figure was 0.07; with U1A A13U A18U U43C U69C, 0.2.
Turning to U1A U31C A35G, the self-cleavage was 0.81.
With U1A A5G G16U U25C C32U A35G G36C the figure was 0.09.
On to U1A A21U U69G, for which the self-cleavage was 0.1.
On to U1A G30U A35U U41A U54C A57G U67C, for which the self-cleavage is 0.03.
Regarding U1A A13G A20G U60C A65G U78C, the self-cleavage turned out to be 0.17.
Take U1A A2G A18U U58C: the self-cleavage turned out to be 0.22.
The same measure for U1C A5G A18G U67C U76A: 0.2; for U1A C23U U43A U51A A56G A57U: 0.07; for U1A A2G U49C: 0.25.
For the variant U1A A21G A45G, the self-cleavage was determined as 0.61.
For the variant U1A C4U A35G U43G, the self-cleavage amounted to 0.56.
For the variant U1A A21G U25G A75G U78C, the self-cleavage was 0.09.
The same measure for U1A A18G A20G U25C U60C U67A: 0.12.
For the variant U1A U41A U78A, the self-cleavage is 0.37.
U1A A13U U41C A45U A56G U60C C62U: the self-cleavage is 0.08.
Turning to U1A G24U C44G, the self-cleavage turned out to be 0.07.
For the variant U1A A5G C11U A15U U51A, the self-cleavage was found to be 0.15.
As to U1A G10A U26C U51C A64U G70U, the self-cleavage turned out to be 0.05.
The same measure for U1A G10A A64G: 0.3; for U1A A18G A35U C79U: 0.42; for U1A A18G C23A U69C U72C: 0.08.
With U1A A13U C23A U25C U26C U72A the figure was 0.24; with U1A U76A U80A, 1.1.
On to U1A C29U A56G U72C A75U, for which the self-cleavage amounted to 0.4.
Consider U1A U25C A56U A65G, for which the self-cleavage worked out at 0.08.
With U1A A3G U41A U69C C71A U78A, the self-cleavage was 0.26.
On to U1C A3G A20G U48C G53A A64G, for which the self-cleavage was found to be 0.13.
Regarding U1A A18U C32A U58C U60A U74C, the self-cleavage was determined as 0.07.
As for U1A A15U A45G U69C U72G, the self-cleavage came out at 0.14.
As to U1A A15G A20G U26C C34U U48A U69C, the self-cleavage was 0.12.
Regarding U1C A5G A13G, the self-cleavage was determined as 0.33.
With U1A A2G G6U G8A U48C A56G U78C, the self-cleavage came out at 0.05.
The same measure for U1A A2G A18U U49A: 0.22; for U1C A5C U31C A47G: 0.48; for U1A A15G C68A: 0.24.
Consider U1A A2G U31C, for which the self-cleavage turned out to be 0.85.
As for U1A A3C U25A U26C U66C, the self-cleavage is 0.12.
With U1C A3G A18U U69G, the self-cleavage stood at 1.15.
Consider U1A A21G A64G U67C U69C A77G, for which the self-cleavage turned out to be 0.16.
With U1C A2G U25C U49C U51C the figure was 0.52; with U1A A5G G24U A65G U69C, 0.09.
Take U1A G8U A13U A21G U69C U74C A75G: the self-cleavage turned out to be 0.05.
The same measure for U1A U26A U76C: 0.69.
With U1C A5G A13U U60C A64G, the self-cleavage was determined as 0.23.
The same measure for U1A A21G U72C U74A: 0.85; for U1A A5C A15U A35G G63A U67C U74A: 0.47.
For U1C A2U A57G, the self-cleavage turned out to be 0.81.
For the variant U1A U31A U67C U76A, the self-cleavage was determined as 0.14.
With U1A A3G C23U A35U U76A the figure was 0.17.
In the case of U1A A57G U67C, the self-cleavage came out at 0.33.
In the case of U1C A2U U31C U48C U51C U58C U69A, the self-cleavage worked out at 0.07.
In the case of U1A C14G A28U U48C U54A U67C, the self-cleavage is 0.14.
With U1A A13G U41G U51C the figure was 0.32; with U1A A18G U58C C68A U72C U76A, 0.15.
Take U1A A5U G19A C32U: the self-cleavage is 0.15.
With U1A A5U U26C U54A A56G the figure was 0.36; with U1A U26C U72A, 0.4.
On to U1A A56G U60C A64G, for which the self-cleavage amounted to 0.23.
U1A U41C U48C U69A U72C: the self-cleavage turned out to be 0.16.
With U1A A35G U43C the figure was 0.98; with U1C A5C A28G A35U U51C G53A U67C, 0.19.
The same measure for U1C A3G U51C C68U A75U: 0.94; for U1A A21G U49A C59A U67C: 0.11; for U1A A35U U48C: 0.25.
The same measure for U1C A2U A15U U25A G33C U43G U69A: 0.05.
For U1C A2U C38U A65U, the self-cleavage came to 0.06.
The same measure for U1A G8A A47G: 0.28; for U1A U25A A77G: 0.35; for U1A G36C C62G: 0.19.
The same measure for U1A A20G U25A U43C U67G U78C: 0.04; for U1A C62A U72C: 0.51; for U1A C4A A15U U51C A57U G70A U72C: 0.2.
With U1A A18U A21G U60C the figure was 0.28; with U1A A3G G8A, 0.26.
Regarding U1A G24A U25C U41C U49C A56G, the self-cleavage stood at 0.07.
For U1C A2G A20C U66C, the self-cleavage came to 0.09.
With U1A G10A A13G U25C U31C U43C the figure was 0.01; with U1C A5G A18U U31A U41C A56U U72G, 0.05; with U1A A5G A15U A21G C37U U58A A64G, 0.06.
With U1A U49A U66C U69A the figure was 0.15.
With U1A A35C C39U U54C A65G G70C the figure was 0.15; with U1C A2G A5U A13C U25A, 0.54; with U1A A45C U48C, 0.2.
Consider U1A U25C U31C U72A, for which the self-cleavage was 0.14.
With U1A A15U A56U the figure was 0.4; with U1A U49A U54C U69C U72A U78A, 0.13.
The same measure for U1C A2G A15G A21G U41A: 0.27; for U1A C11U A13G A35G C62A: 0.08; for U1A U41A A45G: 0.2.
The same measure for U1A A2C A65G: 0.5; for U1A A20U U67A: 1.
Turning to U1A G7A A35G U43A, the self-cleavage stood at 0.32.
The same measure for U1C A5G A15G U60A G70C C81A: 0.09; for U1A U60A U69A U80C: 0.33; for U1C A2G A56G A57G U60C: 0.24.
With U1A C4A G10A A13U A20U U67C U69C, the self-cleavage was 0.2.
With U1C A5C G7C U78C the figure was 0.64; with U1A C4A A15G U25C A28G A35U A47G, 0.2; with U1A A2G A3G A5G A13U A21C C38U, 0.22.
As to U1A A15G A35U U76A U80C, the self-cleavage stood at 0.73.
In the case of U1C A2U U43C A56G U60C, the self-cleavage came out at 0.27.
The same measure for U1A A21C G53U A65G: 0.2; for U1A A13U U41C U58C: 0.37.
U1A U49A A56G A64U U69A: the self-cleavage came to 0.15.
With U1A A28U U51A U54C the figure was 0.91; with U1A C23A U58C G70A, 0.14.
With U1A A5G U25C U54C the figure was 0.14.
With U1A G9A G36A U43G, the self-cleavage is 0.06.
The same measure for U1A A3G G63A A64U: 0.27.
The same measure for U1A A57G U69C A75G A77U: 0.32.
On to U1A G6A U41A G61A U80C, for which the self-cleavage turned out to be 0.08.
U1C A5G A15G A18G U26C U51A U78A: the self-cleavage was found to be 0.65.
As to U1A A5G U80C, the self-cleavage amounted to 0.86.
On to U1C A2U U25A U26A A47G U51C A77C, for which the self-cleavage was 0.04.
Take U1C A3G A13U A45G A56U A57G G63U: the self-cleavage was found to be 0.23.
For U1A C12G U26C U58A, the self-cleavage was 0.06.
The same measure for U1A A15U U26C U43C C62U U69C: 0.16; for U1A G10A A20G A45U U60A A64G U76C: 0.05; for U1A A2G A13G C40U U60C U69C: 0.14.
With U1A G16U A18U U49C U67C A77G the figure was 0.12; with U1A A3G G16U A28G, 0.76; with U1A C14U U25C U54C, 0.19.
The same measure for U1A G52A G55A A77U U80C: 1.1.
In the case of U1C A2C A47G A56G G73C U78G, the self-cleavage was found to be 0.33.
As to U1A A13G A64G, the self-cleavage was determined as 0.75.
With U1A A21G G73A U78A U80A the figure was 0.85.

Values taken from the RNAGym collection of RNA variant scans (doi:10.1093/nar/gkz1192).
